The results in this text go back to the supplement of paper PMC12217912.

B1: TEV protease; numbered along this chain (parent)
chain: MGESLFKGPRDYNPISSSICHLTNESDGHTTSLYGIGFGPFIITNKHLFRRNNGTLVVQSLHGVFKVKDTTTLQQHLVDGRDMIIIRMPKDFPPFPQKLKFREPQREERICLVTTNFQTKSMSSMVSDTSCTFPSGDGIFWKHWIQTKDGQCGSPLVSTRDGFIVGIHSASNFTNTNNYFTSVPKNFMELLTNQEAQQWVSGWRLNADSVLWGGHKVFMVKPEEPFQPVKEATQL

Some of the results follow. The full chains were built here from the parent and the listed change. Inactive controls read about 0.05.
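Also: Bxb1 expression induced with 0.2% (w/v) L-rhamnose at OD600 near 0.5, cultures sampled hourly, flipped fraction per protease–substrate barcode pair counted by paired-end Illumina sequencing.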

The test covers variants of B1. Description: raw area under fraction-flipped curve 0-4 h after induction (AUC4h, not background-subtracted), DNA-recorder readout of cleavage of the substrate (dimensionless); higher = more cleavage of the substrate by the protease variant. The conditions noted are these: temperature: 34 °C; time window: 0-4 h after rhamnose induction.
Regarding MGESLFKGPRDYNPISSSICHLTNESDGHTTSLYGIGFGPFIITNKHLFRRNNGTLVVQSLHGVFKVKDTTTLQQHLVDGRDMIIIRMPKDFPPFPQKLKFREPQREERICLVTTNFQTKSMSSMVSDTSHTFPSGDGIFWKHWIQTKDGQCGSPLVSTRDGFIVGIHSASNFTNTNNYFTSVPKNFMELLTNQEAQQWVSGWRLNADSVLWGGHKVFMVKPEEPFQPVKEATQL [C131H], the “area with substrate PNLYFQS” value amounted to 0.0699, the “area with substrate SNLYFQS” value was 0.0588 and the “area with substrate YNLYFQS” value worked out at 0.0427.
MGESLFKGPRDYNPISSSICHLTNESDGHTTSLYGIGFGPFIITNKHLFRRNNGTLVVQSLHGVFKVKDTTTLQQHLVDGRDMIIIRMPKDFPPFPQKLKFREPQREERICLVTTNFQTKSMSSMVSDTSCTFPSGDGIFWKHWIQTKDGQCGSPLVSTRDGFIVGIHYASNFTNTNNYFTSVPKNFMELLTNQEAQQWVSGWRLNADSVLWGGHKVFMVKPEEPFQPVKEATQL [S169Y]: the “area with substrate PNLYFQS” value came to 0.0465, the “area with substrate SNLYFQS” value stood at 0.0573, the “area with substrate TNLYFQS” value turned out to be 0.0669 and the “area with substrate WNLYFQS” value was 0.0595.
As to MGESLFKGPRDYNPISSSICHLTNESDGHTTSLYGIGFGPFIITNKHLFRRNNGTLVVQSLHGVFKVKDTTTLQQHLVDGRDMIIIRMPKDFPPFPQKLKFREPQREERICLVTTNFQTKSMSSMVSDTSCTFPSGDGIFWKHWIQTKDGQCMSPLVSTRDGFIVGIHSASNFTNTNNYFTSVPKNFMELLTNQEAQQWVSGWRLNADSVLWGGHKVFMVKPEEPFQPVKEATQL [G153M], the “area with substrate PNLYFQS” value came to 0.0524, the “area with substrate SNLYFQS” value turned out to be 0.0467, the “area with substrate TNLYFQS” value was determined as 0.0479 and the “area with substrate VNLYFQS” value was determined as 0.0384.
Consider MGESLFKGPRDYNPISSSICHLTNESEGHTTSLYGIGFGPFIITNKHLFRRNNGTLVVQSLHGVFKVKDTTTLQQHLVDGRDMIIIRMPKDFPPFPQKLKFREPQREERICLVTTNFQTKSMSSMVSDTSCTFPSGDGIFWKHWIQTKDGQCGSPLVSTRDGFIVGIHSASNFTNTNNYFTSVPKNFMELLTNQEAQQWVSGWRLNADSVLWGGHKVFMVKPEEPFQPVKEATQL [D27E], for which the “area with substrate PNLYFQS” value was determined as 0.0502, the “area with substrate TNLYFQS” value turned out to be 0.0749, the “area with substrate VNLYFQS” value was determined as 0.0579 and the “area with substrate WNLYFQS” value amounted to 0.0565. Besides, the “area with substrate YNLYFQS” value was 0.0628.
For MGESLFKGPRDYNPISSSICHLTNESDGHTTSLYGIGFGPFIITNKHLFRRNNGTLVVQSLHGVFKVKDTTTLQQHLVDGRDMIIIRMPKDFPPFPQKNKFREPQREERICLVTTNFQTKSMSSMVSDTSCTFPSGDGIFWKHWIQTKDGQCGSPLVSTRDGFIVGIHSASNFTNTNNYFTSVPKNFMELLTNQEAQQWVSGWRLNADSVLWGGHKVFMVKPEEPFQPVKEATQL [L99N], the “area with substrate PNLYFQS” value came out at 0.0563, the “area with substrate SNLYFQS” value worked out at 0.0619, the “area with substrate TNLYFQS” value was determined as 0.0786 and the “area with substrate WNLYFQS” value was 0.0496. Also, the “area with substrate YNLYFQS” value stood at 0.0472.
As for MGESLFKGPRDYNPISSSICHLTNESDGHTTSLYGIGFGPFIITNKHLFRRNNGTLVVQSLHGVFKVKDTTTLQQHLVDGRDMIIIRMPKEFPPFPQKLKFREPQREERICLVTTNFQTKSMSSMVSDTSCTFPSGDGIFWKHWIQTKDGQCGSPLVSTRDGFIVGIHSASNFTNTNNYFTSVPKNFMELLTNQEAQQWVSGWRLNADSVLWGGHKVFMVKPEEPFQPVKEATQL [D91E], the “area with substrate PNLYFQS” value was determined as 0.0594, the “area with substrate SNLYFQS” value is 0.085 and the “area with substrate YNLYFQS” value was determined as 0.0588.
In the case of MGESLFKGPRDYNPISSSICHLTNESDGHTTSLYGIGFGPFIITNKHLFRRNNGTLVVQSLHGVFKVKDTTTLQQHLVDGRDMIIIRMPKDFPPFPQKLKFREPQREERICLVTTNFQTKSMSSMVSDTSCTFPSGDGIFWKHWIQTKDGQCGSPLVSTRDGFIVGIHSASNFTNTNNYFTSVPKNFMELLTNQPAQQWVSGWRLNADSVLWGGHKVFMVKPEEPFQPVKEATQL [E195P], the “area with substrate PNLYFQS” value was found to be 0.0614.
Take MGESLFKGPRDYNPISSSICHLTNESDGHTTSLYGIGFGPFIITNKHLFRRNNGTLVVQSLHGVFQVKDTTTLQQHLVDGRDMIIIRMPKDFPPFPQKLKFREPQREERICLVTTNFQTKSMSSMVSDTSCTFPSGDGIFWKHWIQTKDGQCGSPLVSTRDGFIVGIHSASNFTNTNNYFTSVPKNFMELLTNQEAQQWVSGWRLNADSVLWGGHKVFMVKPEEPFQPVKEATQL [K66Q]: the “area with substrate PNLYFQS” value stood at 0.0711, the “area with substrate SNLYFQS” value was determined as 0.0697 and the “area with substrate YNLYFQS” value worked out at 0.0726.
With MGESLFKGPRDYNPISSSICHLTNESDGHTTSLYGIGFGPFIITNKHLFRRNNGTLVVQSLHGVFKVKDTTTLQQHLVDGRDMIIIRMPKDFPPFPQKLKFREPQREERICLVTTNFCTKSMSSMVSDTSCTFPSGDGIFWKHWIQTKDGQCGSPLVSTRDGFIVGIHSASNFTNTNNYFTSVPKNFMELLTNQEAQQWVSGWRLNADSVLWGGHKVFMVKPEEPFQPVKEATQL [Q118C], the “area with substrate PNLYFQS” value worked out at 0.0724 and the “area with substrate YNLYFQS” value is 0.0671.
On to MGESLFKGPRDYNPISSSICHLTNESDGHTTSLYGIGFGPFIITNKHLFRRNNGTLVVQSLHGVFKVKDTTTLQQHLVDGRDMIIIRMPKDFPPFPQKLKFREPQREERICLVTTNFQTKSMSSMVSDTSCTFPSGDGIFWKHWIQTKDGQCGSPLVSTRDGFIVGIHSASNFTNTNNYFTSVPKNFMELLTNQEAQQWVSGWPLNADSVLWGGHKVFMVKPEEPFQPVKEATQL [R204P], for which the “area with substrate PNLYFQS” value turned out to be 0.0477.
Regarding MGESLFKGPRDYNPISSSICHLTNESDGHTTSLYGIGFGPFIITNKHLFRRNNGTLVVQSLHGVFKVKDTTTLQQHLVDGRDMIIIRMPKDFPPFPQKLKFREPQREERICLVTTNFQTKSMSSMVSDTSCTFPSGDGIFWKHWIQTKDGQCGSPLVSTRDGFIVGIHSASAFTNTNNYFTSVPKNFMELLTNQEAQQWVSGWRLNADSVLWGGHKVFMVKPEEPFQPVKEATQL [N172A], the “area with substrate PNLYFQS” value is 0.0675 and the “area with substrate SNLYFQS” value is 0.0435.
Consider MGESLFKGPRDYNPISSSICHLTNESDGHTTSLYGIGFGPFIITNKHLFRRNNGTLVVQSLHGVFKVKDTTTLQQHLVDGRDMIIIRMPKDFPPFPQKLKFREPQREERICLVTTNFQTKSMSSMVSDTSCTFPSGDYIFWKHWIQTKDGQCGSPLVSTRDGFIVGIHSASNFTNTNNYFTSVPKNFMELLTNQEAQQWVSGWRLNADSVLWGGHKVFMVKPEEPFQPVKEATQL [G138Y], for which the “area with substrate PNLYFQS” value is 0.0743.
